Experimental data taken from paper PMC4336329 (PLoS ONE, 2015).
The whole screen tested about 310,000 compounds, of which about 14,000 (4.5%) showed an effect of 50% or more. The effect is printed as a negative number. This is one part of the list.

Target: human ether-à-go-go-related gene (hERG) potassium channel (human, UniProt Q12809)
Test: primary screen, population patch clamp on CHO cells stably expressing hERG
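Note: peak tail current of the secondary pulse compared with the same well before compound.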

human ether-à-go-go-related gene (hERG) potassium channel, sequence (Q12809 whole entry, looked up): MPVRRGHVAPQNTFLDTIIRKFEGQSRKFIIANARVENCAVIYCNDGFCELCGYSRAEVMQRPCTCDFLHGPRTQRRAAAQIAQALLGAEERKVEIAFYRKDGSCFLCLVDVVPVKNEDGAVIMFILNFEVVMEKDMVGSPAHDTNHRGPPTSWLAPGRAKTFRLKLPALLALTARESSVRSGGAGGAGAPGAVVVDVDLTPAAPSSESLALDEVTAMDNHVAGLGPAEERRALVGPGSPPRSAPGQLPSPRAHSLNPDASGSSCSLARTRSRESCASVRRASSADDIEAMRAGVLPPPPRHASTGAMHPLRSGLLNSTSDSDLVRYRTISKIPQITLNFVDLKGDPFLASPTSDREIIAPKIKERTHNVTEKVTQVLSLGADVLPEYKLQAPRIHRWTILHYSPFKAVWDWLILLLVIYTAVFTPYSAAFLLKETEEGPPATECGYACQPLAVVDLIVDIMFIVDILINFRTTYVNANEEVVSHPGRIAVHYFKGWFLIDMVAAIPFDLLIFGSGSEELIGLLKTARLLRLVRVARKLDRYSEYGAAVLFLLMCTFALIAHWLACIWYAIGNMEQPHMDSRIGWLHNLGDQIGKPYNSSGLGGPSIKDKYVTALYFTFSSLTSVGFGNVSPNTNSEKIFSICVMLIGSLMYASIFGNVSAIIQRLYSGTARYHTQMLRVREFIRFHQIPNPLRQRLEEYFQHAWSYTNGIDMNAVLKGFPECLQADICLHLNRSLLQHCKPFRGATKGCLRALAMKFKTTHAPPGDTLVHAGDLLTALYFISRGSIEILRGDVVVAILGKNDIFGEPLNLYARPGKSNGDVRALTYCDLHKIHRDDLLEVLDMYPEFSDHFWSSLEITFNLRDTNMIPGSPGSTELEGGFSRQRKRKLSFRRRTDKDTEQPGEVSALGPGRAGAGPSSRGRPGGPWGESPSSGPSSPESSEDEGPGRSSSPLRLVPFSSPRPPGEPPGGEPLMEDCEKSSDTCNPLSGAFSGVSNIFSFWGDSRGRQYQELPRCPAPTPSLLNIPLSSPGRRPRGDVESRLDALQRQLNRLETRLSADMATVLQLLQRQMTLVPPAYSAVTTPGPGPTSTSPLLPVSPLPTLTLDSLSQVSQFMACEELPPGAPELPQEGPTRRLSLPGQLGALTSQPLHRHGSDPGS

SMILES | hERG current change (%, negative = inhibition) at 10uM
CC1CCCN(C(=O)c2cccc(S(=O)(=O)N3CCCC3)c2)C1 (stereo not drawn) | -1.31%
Cc1cccc(NC(=O)Cc2nnc(NC(=O)Nc3ccccc3F)s2)c1 | -10.9%
CC(C)CCC1(CCNC(=O)c2cccs2)CCOC(C)(C)C1 (stereo not drawn) | -8.99%
C=CCn1c(SCc2nc3c(c(=O)[nH]c(=O)n3CCCC)n2CCC)nnc1-c1ccccc1 | -60.5%
Cc1nn(-c2ccccc2)c(C)c1NC(=O)COC(=O)c1cc(Cl)ccc1O | -12.9%
COc1ccccc1OC(C)C(=O)N1CCC(Cc2ccccc2)CC1 (stereo not drawn) | -12.6%
CCn1cc(C(=O)NNC(=O)c2ccc(Cl)cc2)c(=O)c2ccc(C)nc21 | 22.6%
Cc1cc(Nc2ccccc2F)n2nc(C)nc2n1 | 5.99%
Cc1cccc(C(=O)Oc2ccc3ccc(O)cc3c2)c1 | 14.6%
CCOc1ccc(N2CC(C(=O)NCc3ccco3)CC2=O)cc1 (stereo not drawn) | -8.63%
NS(=O)(=O)c1ccc(NC(=O)c2cc(=O)c3ccccc3o2)cc1 | 28.7%
Cc1c(NC(=O)c2ccc(NS(=O)(=O)c3ccccc3)cc2)c(=O)n(-c2ccccc2)n1C | -25.6%
Cc1cc(C)c[n+](-c2[nH]c(=O)sc2/C=N/N=C(\[O-])c2cccnc2)c1 | 12.6%
CCOC(=O)C1CCN(C(=O)C2CCN(S(=O)(=O)c3ccc4ccccc4c3)CC2)CC1 | -6.4%
Cc1cc(N(C)NC(=S)Nc2ccccc2)nc(C)n1 | 17.7%
CCCCN(C)C(=O)c1cn(C)c2ccc(S(=O)(=O)N(C)C)cc2c1=O | 8.34%
C/C(=N\NC(=O)C1CCCC1)c1ccc(C(C)C)cc1 | -39.9%
CC(=O)Nc1ccc(C(=O)OCc2ccccc2Br)cc1 | 6.08%
CC(NCCc1ccc(O)cc1)C(O)c1ccc(O)cc1.Cl (stereo not drawn) | 5.08%
CN1C(C(=O)NCC2CC2)CC2Cn3c(nc4ccccc43)C21 (stereo not drawn) | 15.5%
Cc1ccc(NC(=O)c2ccc([N+](=O)[O-])cc2Cl)nc1 | -7.36%
CCC(C)N(C(=O)CSc1nnc(NC(C)C)s1)C1CCS(=O)(=O)C1 (stereo not drawn) | -5.38%

SMILES | hERG current change (%, negative = inhibition) at 10uM
CCNC(=S)N1CCN(CCN=CC2=C(O)CC(c3ccco3)CC2=O)CC1 (stereo not drawn) | 0.166%
O=C(Nc1cccc(OCC(=O)N2CCOCC2)c1)c1cccc(Cl)c1 | 2.04%
Cc1nnc2n(-c3ccccc3)c(=O)c3c4c(sc3n12)CC(C)CC4 (stereo not drawn) | -17.9%
O=C(CCC1CCCC1)N1CCN(S(=O)(=O)Cc2ccccc2)CC1 | -1.81%
CCCCOc1cccc(C(=O)NC(=S)Nc2ccc(Cl)c(C(=O)O)c2)c1 | 28.9%
Cc1ccc2c(c1)nnn2C1CCN(C(=O)Nc2ccccc2C)CC1 | -22.6%
CCOC(=O)N1CCC(N2C(=O)c3ccc(C(=O)Nc4ccc(OC)c(OC)c4)cc3C2=O)CC1 | 23.2%
COc1ccc(/C=C/c2cc(C(F)(F)F)on2)cc1 | 16.4%
O=C(NCc1ccco1)c1ccc(Cn2c(=O)c3ccccc3n(Cc3ccc(Cl)cc3)c2=O)cc1 | 8.16%
S=C(NCc1ccncc1)NC1CCCC1 | 17.3%
COc1ccc(NS(=O)(=O)c2ccc(Cl)c(NC(=O)c3cccnc3Cl)c2)cc1 | -10.5%
CCOc1ccccc1CN1CCNC(=O)C1CC(=O)N(C)Cc1nonc1C (stereo not drawn) | 8.59%
CC(=O)NCCC(=O)Nc1cc(S(=O)(=O)N2CCCCC2)ccc1Oc1cccc(C)c1 | -68%
COC(=O)CCN1CCC(C(N)=O)CC1 | 4.35%
CCCCC1=CC2=CC(=O)C(C)(OC(=O)C3CCCC3)C(=O)C2=CO1 (stereo not drawn) | 4.34%
O=C(CCCOc1ccccc1)Nc1cccc([N+](=O)[O-])c1 | 5.78%
CN(Cc1ccccc1)c1oc(-c2ccco2)nc1C#N | -29.4%
CCOc1cc(S(=O)(=O)n2nc(C)cc2C)ccc1F | -16.4%
CC(C)N1CCN(Cc2ccc(C#CCCO)cc2)CC1CCO (stereo not drawn) | -5.27%
Cl.O=C(O)CCCCCNc1ncnc2ccc(Br)cc12 | 8.47%
COc1ccc(CN(C2CCCCC2C)S(=O)(=O)c2ccc(S(=O)(=O)N(C)C)cc2)cc1OC (stereo not drawn) | -7.82%
O=C(NCc1ccc2[nH]c3c(c2c1)CCCC3)c1ccc(S(=O)(=O)N2CCOCC2)cc1 | 0.651%

SMILES | hERG current change (%, negative = inhibition) at 10uM
O=C(CCSc1ccccc1)Nc1nccs1 | 4.16%
O=C(CNCCO)N1N=C(c2cccs2)CC1c1cccs1 (stereo not drawn) | 8.28%
CC1(C)NC(=O)N(CC(=O)OCC(=O)NC(=O)c2ccccc2)C1=O | 4.15%
c1ccc2oc(NC3=NCN(C4CCCCC4)CN3)nc2c1 | 13.4%
CCN1CCN(c2nc3c(C)cccn3c(=O)c2C=C(C#N)C#N)CC1 | -15.2%
CNC(=S)NC12CC3CC(CC(C3)C1)C2 | 0.999%
CCCCNC(=O)CN1C(=O)NC(Cc2ccccc2)(Cc2ccccc2)C1=O | 2.57%
Cc1c(NC(=S)NC(=O)CSc2ccc(Cl)cc2)cccc1C(=O)O | 2.82%
Cc1ccccc1CN1C[C@@H]2C[C@@H](c3cn[nH]c3-c3ccc(F)cc3)N3CCC[C@@]23C1=O | -52.2%
CNC(=O)c1cc2c(-c3ccccc3)nn(C)c2s1 | 1.75%
CSCCC(NC(=O)COc1ccccc1)C(=O)N(C)CC(=O)Nc1ccc(Cl)cc1 (stereo not drawn) | -41.3%
COc1ccc(-c2noc(N3CCC(C(=O)N(C)c4ccccc4)CC3)n2)cc1 | -36.1%
CC1=NN(C(=O)Cc2ccc([N+](=O)[O-])cc2)C(O)(C(F)(F)C(F)(F)F)C1 (stereo not drawn) | -12.4%
O=C1C=C(c2cc3ccccc3s2)CCC1 | -6.45%
CCN(CC)CCCn1c(C)cc2c(c1=O)C(c1cc(OC)c(OC)cc1OC)C(C#N)=C(N)O2 (stereo not drawn) | 7.99%
Cc1cccc(C)c1NC(=O)CN(C)C(=O)c1ccc(-n2cncn2)c([N+](=O)[O-])c1 | -6.43%
CCC(C)[C@H](NC(=O)N1CCCC1)C(=O)O (stereo partly drawn) | 12.4%
Cc1cccc(CSc2nc3nc(C)cc(C)n3n2)c1 | -27.9%
O=C(c1ccc(CS(=O)Cc2ccc(Cl)cc2)o1)N1CCN(c2cccc(Cl)c2)CC1 (stereo not drawn) | -52.7%
CC(Sc1ncc(C(F)(F)F)cc1Cl)C(=O)NCC1CCCO1 (stereo not drawn) | -13.7%
Cc1cc(C(c2nnnn2Cc2ccccc2)N2CCOCC2)c(C)n1-c1ccc2c(c1)OCO2 (stereo not drawn) | -32.1%
CCN(CC)c1ccc(/C=N/NC(=O)c2cnccn2)c(O)c1 | 0.584%

SMILES | hERG current change (%, negative = inhibition) at 10uM
Nc1ccc(S(=O)(=O)[N-]c2cnc3ccccc3n2)cc1.[Na+] | -6.28%
COc1ccc(-c2nc3nc(C)cc(C)n3n2)cc1 | -8.05%
COc1cccc(NC(=S)NCc2cccs2)c1 | -3.78%
O=C(NCCc1nc2ccccc2[nH]1)C1CCC(=O)N(CCc2cccc(F)c2)C1 (stereo not drawn) | 7.55%
COc1ccc(OC)c(S(=O)(=O)NC(C)(C)C)c1 | 21.5%
COc1ccc(CC(=O)Nc2cccc(S(=O)(=O)N3CCOCC3)c2)cc1OC | 6.61%
Cc1ccc(C)c(OCC(=O)Nc2ccc(S(=O)(=O)N3CCN(C)CC3)cc2)c1 | -1.44%
CCOc1ccc(CCNC(=O)C2CCCN(c3ncnc4c3nc3n4CCCCC3)C2)cc1 (stereo not drawn) | -58.6%
Cn1cnc2c1c(=O)n(Cc1cccc(F)c1)c(=O)n2C | 12%
CSc1ccccc1C(=O)Nc1cccc([N+](=O)[O-])c1 | -12%
Cc1csc(SCCn2c(N3CCCC3)nc3c2c(=O)[nH]c(=O)n3C)n1 | 2.18%
CCOc1ccc(OCCC(=O)NNC(=O)c2cc(OC)c(OC)c(OC)c2)cc1 | -46.1%
COc1cc(C)c(Br)cc1S(=O)(=O)NCc1ccncc1 | 7.9%
CC1CCCN(C(=O)Cn2nnc(-c3ccc(S(C)(=O)=O)cc3)n2)C1 (stereo not drawn) | 17.7%
C=CCOc1cccc(C2/C(=C(\O)c3ccc4c(c3)OCCO4)C(=O)C(=O)N2Cc2cccnc2)c1 (stereo not drawn) | 17.7%
CC(CN1C(C)CCCC1C)OC(=O)c1ccccc1F.Cl (stereo not drawn) | -9.23%
COC(=O)c1ccc(C(=O)OC)c(NC(=S)N2CCN(c3ccc(F)cc3)CC2)c1 | -24%
C[C@H]1CC[C@H]2C(=O)N3[C@H](c4ccccc4Br)[C@@H](C)CC[C@H]3C(=O)N2[C@@H]1c1ccccc1Br | 10.4%
Cc1cc(C(=O)N/N=C/c2ccc(Br)o2)n[nH]1 | 3.87%
O=C(CCNC(=O)C1CCN(S(=O)(=O)c2ccccc2)CC1)NCCc1ccc(Cl)cc1 | -4.76%
CC(=O)c1ccc(-n2c(CCC(=O)O)ccc2-c2ccc(Br)cc2)cc1 | 11.3%
